This is one part of the list. At the low end of the ranking, values are background and their order means little.
Each sequence was assayed against SIX1-Q177R homeodomain (UniProt Q15475) (assay: universal protein binding microarray). Conditions: Universal all-10-mer PBM (8x60K, AMADID 030236), 300 nM GST-tagged protein, Alexa Fluor 488 anti-GST; buffer, salt, pH and temperature not stated; high values mean tight binding; most listed sequences are background and not binding sites; double strand, one strand shown.

Sequence | binding signal [E-score]
GCATGTAA | -0.267
GTGGTCTA | -0.24
AGCTCTTG | 0.0292
ATCTTCTC | -0.26
AAGTGAAA | -0.211
AAACCATG | -0.0648
ACGACGAG | 0.0334
CATACCTA | 0.118
CACACGTA | 0.262
GAACTCCA | 0.0448
CCTGTCGC | -0.046
ATCATCAT | -0.109
TGTAACAA | 0.0776
CACGAAGA | 0.183
ATGAGCCG | -0.124
AGTCACTG | -0.0912
CGCGTAGA | -0.028
GGAAGTCC | -0.357
TACAGCGA | -0.0156
ATTACCCG | 0.167
AGACTCCC | -0.0273
TACAGTCA | -0.192
GCCTCGAA | -0.309
ACCTCTTG | 0.119
ACGACTTA | -0.184

Sequence | binding signal [E-score]
ATTGACCA | -0.0287
ATGTTACG | -0.0117
CTGTCCCA | -0.105
CGGAAGCC | 0.011
CAGACGGA | -0.136
CTACAAGC | 0.0112
GCAGTCAC | 0.0923
ATGGCGTC | 0.0528
CAGTCTTC | -0.263
ATGCTACG | -0.0255
TAACTCGA | 0.0141
GAAATTAA | 0.00983
ACCATGAT | 0.0345
CGTCCAAC | 0.0861
AAACCCAT | -0.0775
AAGCGAAA | -0.286
ACACAAGT | 0.0769
TATCCTCA | 0.0154
ACGTTGAG | 0.0269
AGTTTTGC | 0.0118
CCAAGACC | -0.087
CTCCTACC | 0.0647
ATTAGTAC | 0.114
AAATAATG | -0.0367
AGTCGCAA | -0.0574

Sequence | binding signal [E-score]
ACTGCCCG | 0.219
ATGTACAA | -0.124
AAAAGTAT | -0.149
CGCCTGAC | 0.105
GTTCATGA | -0.13
ATGTACTA | 0.0231
GTACCTTA | 0.0897
CGAGACTC | 0.0917
ACAGAGCG | -0.271
ACAATCAT | -0.0218
AAAACTAC | 0.0709
AAAAGCGC | -0.0916
AGAGAGCT | -0.165
CTGGCACA | 0.218
ATTTGAGG | -0.0894
AGGAAGTA | -0.0689
GTGCACAA | 0.113
ACCTCATA | -0.0279
ATCCATGA | -0.000195
ACATCAAA | -0.0621
CGCCCATA | 0.0879
ATGCTGGA | -0.0456
ATTATCCA | 0.00307
ATGCACGC | 0.061
TCTGACCA | -0.177

Sequence | binding signal [E-score]
GTAAGCAA | -0.211
AAACTCTT | -0.125
AGTGTGCA | 0.185
GACCCCTC | 0.26
CAACTCGC | 0.026
AATATTAA | -0.0587
CCCGTCAA | -0.134
GCGGCAAC | -0.203
CGTAATGA | -0.124
AGCTCTCG | -0.238
TAGTGCCA | 0.0354
CACACGTG | 0.362
ATAACGGG | -0.04
ATCTCTGC | -0.0534
AACTTACA | 0.164
GTGAACAA | 0.0192
CAGTTGTA | -0.0984
TACGTCAA | 0.0575
GGAAACAC | 0.374
ACTTTCAA | -0.197
GATCTTGC | -0.116
AGATAGAA | -0.112
TGATTGAA | -0.12
AGGAGGAG | 0.0377
AGGCGATC | -0.256

Sequence | binding signal [E-score]
GCTGTGAA | -0.105
CTACTGTC | -0.106
GGCTACAC | 0.424
ACGATTCT | -0.0451
TAACTTCA | -0.0383
ACGAAGGC | -0.279
ACGGCCCG | 0.118
ATGGATAG | -0.153
GGTACGAC | 0.195
ATCAATAA | -0.112
TATCAGAA | 0.102
CTCAATAC | 0.0952
CACTTGAA | 0.202
ACGCAATC | 0.0676
ACGCTGGC | 0.0478
AATCTTTA | -0.218
GCATCTAC | 0.0332
AACACTCG | 0.337
CTCGTACC | -0.0229
CACTCTAC | 0.291
TCACGACA | 0.14
CGGTTCAC | 0.112
ACTGAAGT | -0.102
CGTACTGC | -0.116
ATCTCGTC | -0.251

Sequence | binding signal [E-score]
ACATCTAT | -0.0947
CCGTGTAG | 0.446
CACTCGTC | 0.0889
TAGTCTGA | -0.0176
ATGCAGCA | -0.0959
ACCTTGAA | 0.14
GGAGACCC | 0.0168
ATGACCGG | -0.115
CGGTGATA | 0.147
TCGATAGA | -0.0795
AACAGCAA | -0.258
CAGGCGCC | -0.185
CTGATCGC | -0.182
CCGGGAAC | -0.00309
TATGCAAA | -0.0978
ACCGGTAA | 0.0185
ATAATGCC | 0.00387
CTGACCAG | 0.033
AATACTGT | -0.131
AGGGTTCA | 0.0912
AGGTCAAA | -0.106
CTACACAG | 0.161
ATAAACCA | -0.208
CATGAGCA | -0.138
ACCAACCG | 0.0753

Sequence | binding signal [E-score]
ATACCAAT | 0.0745
GTGCCTGA | -0.108
CCTCACAC | 0.279
AAGCCCTG | -0.115
GATATTGA | -0.13
CAAAGCAG | -0.149
AAATCCAG | -0.18
AAGTCGAA | -0.276
ACGAATTA | -0.09
AATCATAG | 0.0132
GTGGTAGA | 0.148
AATAGTGG | 0.0603
CCTCCCAC | 0.127
CCGGGTGC | 0.224
CAAAAGCG | -0.00548
CGACATAA | -0.157
AATTGCAC | 0.151
ACGTATCG | 0.0747
CCGCCACG | 0.0348
GGATGCAA | -0.0448
CGTGTGCA | 0.202
ATTGCTTG | -0.166
CCCAGGCA | -0.0845
CTGTGGTA | -0.0554
GAATTAAC | -0.0152

Sequence | binding signal [E-score]
CAGGTGCA | 0.0636
CCTGTAAG | -0.0464
TAACTGCA | 0.0233
GTGCTGGA | 0.0205
CCACCTGG | -0.0928
CTTACCGC | -0.0924
CGAAGGCA | -0.0825
CAGAACTG | -0.293
CTTCTCTC | -0.255
CCATACAC | 0.396
AGTGCACA | 0.171
CAATACGG | -0.281
ATTTTACG | -0.174
AGGCACTC | -0.091
GCGGACGC | -0.00925
CCACGGTC | -0.16
ATTAATTC | -0.108
CTTTCGGC | -0.0973
TCGGCAAA | -0.107
CGCATGAC | 0.0335
GGTCCGGA | 0.161
ATTGCGGA | -0.098
CAATATTG | 0.074
CACCTTGG | 0.344
AAGGGGGG | 0.122

Sequence | binding signal [E-score]
GTCTGTGA | 0.137
CCCCGTAC | -0.0364
ATGTCCAG | -0.22
AGTACGCG | -0.00462
AAGGTATA | -0.0748
CAGATCAG | 0.125
GTATTACA | 0.0751
CAAACAGG | 0.0871
AAGAAGAC | -0.139
AATGGGGC | -0.14
AAGGAGTA | 0.158
GTGTTTCA | 0.357
CGCAATCA | -0.141
AACTCCCG | 0.181
AATCGCAA | -0.243
TACAAATA | -0.0592
GCAATGCC | -0.092
CACGCGGG | 0.241
ACTAGAAC | 0.0257
